Laboratory results from the antibiotic and cytotoxicity screens of Wong et al. (2023).
The other results are listed elsewhere or left out.

What was measured:
[1] = tested on: HSkMC (human skeletal muscle cells); assay: cytotoxicity call (relative viability < 0.9); settings: 10 µM
[2] = tested on: S. aureus RN4220; assay: growth inhibition call (relative growth <= 0.2); settings: 50 µM

Row | SMILES | cytotoxicity call [1] | growth inhibition call [2]
1 | C[N+](C)(C)CCCC[C@@H]1NC(=O)[C@H]2C[C@@H](C(=O)NCCCCCCN)[C@@H](c3ccc(O)cc3)N2C1=O | inactive | inactive
2 | CCS(=O)(=O)N1CCC(C(=O)N(C)C)CC1 | inactive | inactive
3 | CC(C)[Si](C#CCCc1ccccc1)(O[C@H](c1ccccc1)c1cn(Cc2ccccc2)nn1)C(C)C | inactive | inactive
4 | CCC[C@@H](O)C#Cc1cnc2c(c1)C(=O)N([C@H](C)CO)C[C@H](C)[C@H](CN(C)S(=O)(=O)c1cccs1)O2 | inactive | inactive
5 | COCCNC(=O)[C@H]1[C@H](CO)[C@H]2Cn3c(cccc3=O)[C@@H]1N2S(=O)(=O)c1ccccc1C | inactive | inactive
6 | C[C@@H]1CN([C@H](C)CO)C(=O)c2cccc(NS(=O)(=O)c3ccc(F)cc3)c2O[C@H]1CN(C)S(=O)(=O)c1ccccc1 | inactive | inactive
7 | Cc1noc(C)c1S(=O)(=O)NC(C)C | inactive | inactive
8 | C[C@@H]1CCCCO[C@@H](CN(C)Cc2ccc(Cl)c(Cl)c2)[C@@H](C)CN([C@@H](C)CO)C(=O)c2cc(NC(=O)Nc3ccccc3)ccc2O1 | inactive | inactive
9 | COc1ccc(CN(C)C[C@@H]2Oc3c(NS(=O)(=O)c4cn(C)cn4)cccc3C(=O)N([C@H](C)CO)C[C@H]2C)cc1 | inactive | inactive
10 | N#CCCn1nc2c(c1N)CCC2 | inactive | inactive
11 | CC(=O)OC1CCC2(C)C(CCC3C2CCC2(C)C3CC3OC4(CCC(C)CO4)C(C)C32)C1 (configuration not stated) | inactive | inactive
12 | CN(C)C(=O)[C@H]1[C@H](CO)[C@H]2Cn3c(ccc(C4=CCCC4)c3=O)[C@@H]1N2S(=O)(=O)c1cn(C)cn1 | inactive | inactive
13 | CO[C@@H]1CN(C)C(=O)c2cc(NC(=O)Nc3ccccc3F)ccc2OC[C@H](C)N(CCC(F)(F)F)C[C@@H]1C | inactive | inactive
14 | COC(=O)[C@H](Cc1ccccc1)N1CC2=C[C@@H]([C@@H](O)CCn3cc(C(=O)NO)nn3)n3c(=O)n(C)c(=O)n3[C@@H]2[C@@H](C2CC2)O1 | inactive | inactive
15 | CCS(=O)(=O)N1Cc2cc(C(=O)NCCOC)nc(-c3cccc(-c4ccncc4)c3)c2[C@H]1CCO | inactive | inactive
16 | Cc1noc(C)c1S(=O)(=O)N(C)C[C@H]1Oc2c(NS(=O)(=O)c3cn(C)cn3)cccc2C(=O)N([C@@H](C)CO)C[C@H]1C | inactive | inactive

Row | SMILES | cytotoxicity call [1] | growth inhibition call [2]
17 | C[C@H]1CN([C@@H](C)CO)S(=O)(=O)c2ccc(C#Cc3cccnc3)cc2O[C@H]1CN(C)CC1CCOCC1 | inactive | inactive
18 | Cc1noc(C)c1NC(=O)N[C@@H]1C=C[C@H](CC(=O)NCCCN(C)C)O[C@@H]1CO | inactive | inactive
19 | COc1ccc2c3c([nH]c2c1)[C@H](CO)N(C[C@]13CCN(CC1)Cc1cc(on1)-c1ccccc1)C(=O)Nc1ccc(cc1)F | active | inactive
20 | O=C(CO)c1ccccc1 | inactive | inactive
21 | CC(C)N1CC[C@@H](CNCc2ccc(Oc3ccccc3)cc2)Oc2c(NC(=O)c3ccncc3)cccc2C1=O | inactive | inactive
22 | C[C@H]1CN([C@@H](C)CO)C(=O)c2cccc(NC(=O)Nc3ccccc3)c2O[C@@H]1CN(C)Cc1ccc(C(F)(F)F)cc1 | active | inactive
23 | C[C@@H]1CN([C@@H](C)CO)C(=O)c2cc(NC(=O)CCN3CCOCC3)ccc2O[C@H]1CN(C)CC1CCCCC1 | inactive | inactive
24 | C[C@@H]1COCCS(=O)(=O)N1C | inactive | inactive
25 | CC(C)(C)NCC(O)c1cc(O)cc(O)c1.O=S(=O)(O)O (configuration not stated) | inactive | inactive
26 | OC[C@@H]1CC[C@@H]2O[C@H](CCc3ccc(C#CCc4ccccc4)cc3)[C@@H](n3cc(-c4ccccc4)nn3)C[C@@H]2O1 | inactive | inactive
27 | CN(CCO)c1ccccn1 | inactive | inactive
28 | Cc1noc(C)c1S(=O)(=O)Nc1ccc2c(c1)CC(=O)N([C@H](C)CO)C[C@@H](C)[C@@H](CN(C)C(=O)Nc1ccccc1)O2 | inactive | inactive
29 | CC(C)NC(=O)N(C)C[C@H]1OCc2cn(nn2)CCCC(=O)N([C@H](C)CO)C[C@@H]1C | inactive | inactive
30 | CC(C)NC(=O)Nc1ccc2c(c1)CC(=O)N([C@@H](C)CO)C[C@H](C)[C@@H](CN(C)Cc1ccc(C(=O)O)cc1)O2 | inactive | inactive
31 | CC(=O)N(C)C[C@H]1Oc2ncc(C#C[C@H](C)O)cc2C(=O)N([C@@H](C)CO)C[C@H]1C | inactive | inactive
